The full ranking holds about 33,000 sequences; the median of “E-score (-0.5 to 0.5)” is about -0.012, and the highest 2% start at about 0.29. This is one part of the list.
The sequences below were run against T1, Ybr033w (UniProt P38073) (assay: PBM E-score (8-mer binding enrichment) (E-score (-0.5 to 0.5)); higher = stronger / more preferred TF binding; most listed sequences are background and not binding sites). Conditions: protein concentration: 200 nM; construct: GST-full length.
T1 sequence: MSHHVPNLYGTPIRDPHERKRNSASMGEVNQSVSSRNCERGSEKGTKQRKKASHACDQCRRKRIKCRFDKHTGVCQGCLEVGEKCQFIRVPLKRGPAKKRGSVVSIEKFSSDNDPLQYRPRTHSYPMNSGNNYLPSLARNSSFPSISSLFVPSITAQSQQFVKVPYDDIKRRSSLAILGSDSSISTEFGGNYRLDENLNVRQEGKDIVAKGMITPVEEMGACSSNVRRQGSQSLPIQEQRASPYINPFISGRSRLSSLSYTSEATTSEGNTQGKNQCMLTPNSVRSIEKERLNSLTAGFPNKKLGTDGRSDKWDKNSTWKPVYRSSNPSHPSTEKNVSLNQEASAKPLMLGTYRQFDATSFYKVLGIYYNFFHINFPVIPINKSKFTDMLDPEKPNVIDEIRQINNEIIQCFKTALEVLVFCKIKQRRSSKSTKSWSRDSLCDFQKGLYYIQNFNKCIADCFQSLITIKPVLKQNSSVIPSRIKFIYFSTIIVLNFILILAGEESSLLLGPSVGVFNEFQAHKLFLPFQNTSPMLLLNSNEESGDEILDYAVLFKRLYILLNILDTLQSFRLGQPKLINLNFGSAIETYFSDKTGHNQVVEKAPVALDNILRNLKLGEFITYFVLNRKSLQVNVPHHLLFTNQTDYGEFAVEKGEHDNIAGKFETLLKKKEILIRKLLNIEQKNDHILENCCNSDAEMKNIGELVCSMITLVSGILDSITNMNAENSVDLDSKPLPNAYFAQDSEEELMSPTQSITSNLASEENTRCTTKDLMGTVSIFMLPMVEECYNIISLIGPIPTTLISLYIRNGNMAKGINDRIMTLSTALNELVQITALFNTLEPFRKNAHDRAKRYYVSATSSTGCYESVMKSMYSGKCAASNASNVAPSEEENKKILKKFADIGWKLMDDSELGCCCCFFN
In short: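 E-scores (a modified Wilcoxon-Mann-Whitney statistic) were assigned by the Universal PBM Analysis Suite to every ungapped eight-base word pooled with its reverse complement. The input came from universal all-10-mer Agilent arrays made double-stranded by primer extension and probed with GST-tagged yeast transcription factors at about 100-200 nM. Fluorescent anti-GST detected bound protein, and masliner normalised the scans.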

Sequence	PBM E-score
CTATTGAC	0.19
AGAGCTGC	-0.262
GATAATCC	0.375
AGTATAGC	-0.00884
AGCGTTCG	-0.153
ATAGGGCG	0.0123
ATAAGCCA	-0.12
CGCCCACA	-0.0767
ACAGGTGG	-0.153
GACCATAA	-0.084
AGTGCGTC	-0.168
CGCGTACA	-0.22
TAAAGGAA	0.162
CGTAGACC	-0.168
CCGCCGGA	-0.0333
GATTGTCC	-0.0168
GCTCACGA	-0.0945
ATGCTGTC	-0.093
ATGCGTGA	0.117
AACCAAGC	-0.0656
AACCACGC	-0.0972
ACAGTTAC	0.0005
CGGTCGGA	-0.122
ACAATATC	0.293
CTATGGTA	0.094

Sequence	PBM E-score
ATCACCGG	-0.173
ATTCCGTA	0.287
ATTTGGTG	0.162
ACCATGTA	0.0954
GCTTAAAC	0.0164
CCGCATAG	-0.0455
CTCGCCAA	-0.0378
CATTACTC	0.11
AGGAGCAG	-0.336
AAACCATT	0.0861
GTAATGAA	0.154
ATGTGCCC	-0.0255
GAGAACGC	-0.147
CCTGAGTC	0.0158
CTGCTCGA	-0.298
AAACTCGA	0.135
AGGTCCAG	0.0347
CAGAAGAC	0.131
CGCGTGCC	-0.174
ACCATATG	-0.107
TAGCCCCA	-0.07
ACACATGG	-0.0966
CTAAGGAA	0.0694
GTGAGGCA	-0.173
CCCCCTCC	-0.436

Sequence	PBM E-score
AAGTCCCT	-0.0649
GGAGAAGA	-0.0783
TCCCCTCA	-0.098
CTTTGCTA	0.0685
CGCCGTAA	-0.00075
GCGTTTAC	-0.152
GAATCAGC	-0.0381
CATGTCAA	0.0462
AGTTAACT	-0.0606
ATATTGGG	-0.0335
CCAAAGCG	-0.111
AATGACCC	-0.0307
ACAGGGTG	-0.236
CCCTATTA	0.0075
ATCTCAAC	0.16
AGAGCGCG	-0.0481
CAGGCCAA	-0.209
CATCGAAA	0.0429
ACTCGATA	0.238
AATGTCGG	0.0232
CCCCTATA	-0.111
AATACGCG	0.0536
TATCATCA	0.216
GGCGTTAA	-0.0939
ACAGCGGT	-0.173

Sequence	PBM E-score
GTCAACTA	0.161
ATCACGGA	0.133
ACAGAGCC	-0.195
CCGTGTCG	-0.114
CACCAATC	-0.0769
CTGGCAGA	-0.00651
ACGAGTCT	-0.165
CTACGTCA	-0.0853
CACGTTAG	-0.0646
ATCGTTTA	0.307
ATGCGCCC	-0.0256
AGCTGGAG	-0.144
ATGAAGGG	-0.0569
TGAATAAA	0.195
GACAGTAA	0.0683
CGTTGGGA	-0.168
GCCAGACC	-0.177
CTACGGAG	-0.072
CGGGATAG	-0.143
AGGGCTTG	-0.134
CAAGCTAC	0.0217
ACTGCAAT	0.0873
GCCCAGGC	-0.389
CGCCGAAG	-0.197
ACCACTGG	0.0408

Sequence	PBM E-score
CGACCACA	-0.126
AGCAGCAG	-0.0491
ACTCGCGA	0.241
GACGCGCC	-0.203
ACAACGAA	0.0989
ACAATTCC	0.137
AGGGGGCA	-0.293
ATCTGTTA	0.169
AAGAAACT	0.249
CGATCCCA	-0.212
AACATAAT	0.295
GTGGTATA	0.0819
CAAAATGA	0.139
ATTATGGC	0.169
ACGAGCAA	-0.0912
CCCCCTGA	-0.445
CCTTATCC	-0.316
CAATGAAC	0.00305
ACACCACG	-0.187
ACCATGAG	-0.124
AGATCCTC	-0.00161
CAATTTTC	0.212
CTATCGTA	0.0572
AGCATCTG	-0.193
ATGTTTTA	0.0642

Sequence	PBM E-score
TAACCTGA	0.0342
AGAGAGCC	-0.2
AGCTCTCC	-0.265
ACGAATCC	0.052
TACAACCA	0.149
CTTTTATA	0.176
CCTTACAG	-0.0582
CCGCAGTC	-0.151
ACGGACGA	0.0974
TTGATCAA	0.096
GTTGCGGA	-0.0408
CCAAGCCC	-0.289
CAGTAACA	0.186
ATCAGTGG	-0.0788
GTGGGATA	0.037
ACATTGGG	-0.0214
ACCAGGCA	-0.137
TACTTAGA	0.125
AAATTGGG	0.175
AGAGGGCC	-0.287
ATTCTACA	0.17
CTAACGCC	-0.0983
AGTGCACA	-0.0358
AATATGGC	-0.0217
AGCCTGTC	-0.0235

Sequence	PBM E-score
CAAAATGC	0.102
GCTATGTA	-0.106
CCATGAGA	-0.086
AGGGTTAT	0.00086
GAAACCAA	0.106
ACGTGCTG	-0.0106
AAGCGCGC	0.0512
CCGAGTTC	0.0991
TCCGGGCA	0.0575
ATAGGGCC	-0.198
TCCTAGAA	-0.113
CGATACGC	-0.0077
CCTCGATC	-0.114
GAGGAGAC	-0.249
AGTGTTCA	0.081
CTGTGCCC	-0.205
ACCCGTCC	-0.225
CCTTTAGC	-0.087
CATACCGC	-0.0495
GCCTCCAC	-0.291
AGCTCGTG	-0.072
AAACGTTT	0.0726
CTGCACGA	0.0216
ACCGATCC	-0.185
ACGCGCTG	-0.167

Sequence	PBM E-score
CCACGGTA	-0.144
TGGGGGAA	-0.172
GTCACCAA	-0.16
AATGGGGA	-0.192
GACACAAC	-0.101
GCATATGA	0.094
AAACAGTA	0.191
CGAGCCTA	-0.0771
AATGGGCG	-0.0212
AAGAGTTA	0.126
CGTGCATC	-0.184
AGTAAAAC	0.0884
ACTGCCGC	0.0159
ATCGTAAG	-0.0318
CCCGCGAA	-0.00032
GAAGATCC	-0.0624
AACGTTTG	0.0394
CAGCTAGA	-0.156
GTGCTCTA	-0.198
AGATAACA	0.0908
CATAGAAC	-0.134
TCAGGCAA	-0.116
ATGCAGAC	-0.126
CCCATGAA	-0.00986
CGGAGCTC	-0.308

Sequence	PBM E-score
CTTCCAAA	0.156
GGACATAC	0.00087
ACTTAGAT	0.211
CCTTTTAC	0.00999
AACAAATG	0.139
CCGCTCGC	-0.0741
CGTTTGCA	0.00146
CAATGCTA	0.115
CTGTCGAA	0.0437
AGGCCAAA	-0.00819
CAAGGAAC	0.0832
AAAGCAAG	0.188
GCTTAAGA	-0.0053
AAGATTCG	0.231
AGTGATAA	0.0273
AGCTAACG	-0.122
AAGCGCTG	0.0201
CTCAAGGA	-0.103
AAGACCTC	-0.202
ACCCATAG	-0.315
TCAGCCGA	0.0152
CTGTTACA	0.0163
CCTCGCTA	-0.151
GCAGGACA	0.025
AAATAAGA	0.16

Sequence	PBM E-score
ACCCGTTA	0.0456
ATATAAGA	0.25
CGCCACAC	-0.0773
ACCTCGTA	0.0833
ATAAAACA	0.187
CCATAGCA	0.029
AGTCGGGA	-0.247
AACCCGGC	0.0321
GACTGCGC	-0.14
TAGGGGCA	-0.276
CATACTCA	0.116
GCTCTTCA	-0.0939
CTTTAAAC	0.0871
CGGATGAA	0.371
AGTCTGCA	-0.275
CAGCAGCA	0.0143
ATCATATG	0.19
AAGTCTGG	-0.0694
GACTCGCA	-0.0199
GATAACGA	0.171
ATCCATCG	0.0546
ATGTAGAG	-0.0059
CAAAATTG	0.0527
CACAATGA	0.0642
CCCTCTAG	-0.163

Sequence	PBM E-score
CCGATACA	0.0311
CCCTCTGC	-0.235
ATGCTGCG	-0.15
CTCAAACC	0.0489
AATGGCGG	-0.0429
AATCGGTC	0.034
GTACAGAC	-0.1
ACTAGTTG	-0.071
CGAGGGAG	-0.223
CCATCTTA	-0.14
CACAGTAG	0.0135
ACTAAGTA	0.0353
AGGTATGC	0.127
CCGGCCAC	-0.162
AAGGGCGC	0.0645
CATCTACC	0.0235
AACACGGA	0.0405
ATAGTGCG	0.0631
CGGACTTA	-0.0464
GCAGGCGA	-0.332
GACAGGTC	-0.38
TAAATAAA	0.301
CAGCGTTA	-0.123
ATAGGCGA	-0.0643
GGCTGACC	-0.232

Sequence	PBM E-score
CGTTAGTA	0.171
CGGTCTAC	-0.0984
AACAATCG	0.0843
GATAACCA	0.0836
TCGGAGAA	0.152
CCTTAAGC	-0.178
ACTGGGGC	-0.224
CGACGAGC	-0.193
TCGAGCAA	0.146
AGGACATG	-0.0251
ACAGTAAC	0.199
CCCCTAGC	-0.297
GGCACGCA	-0.153
CACTGCTA	0.0266
ACGCGGGG	-0.104
CGTCCGAG	-0.0798
AACTAGTG	0.107
AGACCTAG	-0.0713
AGTCGGGG	-0.194
CAATCCTA	-0.0184
TATGTCGA	0.13
CTCGTTAC	-0.113
AAATACGT	0.163
CTCTGCGA	-0.0389
CTTGTCTA	0.0137

Sequence	PBM E-score
AACGAACG	-0.0204
CCGACCCC	-0.42
AAGGCTCC	-0.343
AGACGCTC	-0.261
AGATCCCA	-0.01
CTATCACC	-0.0949
CTTTACAA	0.0948
CTTCTTGA	0.158
ACCAGAGA	0.0781
CAGCTGGA	0.0374
ACTGGACG	-0.221
GTTAACGA	0.167
GGCGAATA	-0.0889
GCACTAAA	0.225
GGAGTCAA	-0.0842
AGATTGTC	0.0249
CTATTTGA	0.227
AACTAGGA	0.098
CCCACCCA	-0.154
GAAGATAC	0.17
TAATGTCA	0.256
AGTATTAT	0.138
GCTAGGCC	-0.295
AACTATGG	-0.131
AGAACTTC	0.00762

Sequence	PBM E-score
CAAAAATG	0.157
AAAGGTTG	-0.131
CCTGACGC	-0.3
AGGACAGG	-0.113
CAGGAGCA	-0.118
GCGGCCGA	-0.114
CATCGTCC	-0.0871
AAGACTGC	-0.296
ACACAGCA	0.145
AGCGACTG	-0.132
TAAATAGA	0.0889
AGGGTTTG	0.078
CACCGCGC	-0.0895
AAGTTTAG	0.128
ATCACACG	-0.0221
ATTCTGAA	0.187
CGGTTTGA	-0.125
CGGTTTGC	-0.142
AAAGATTG	0.133
